# Experimental data: the supplement of paper PMC12217912
# This is one part of the list. The full chains were built here from the parent and the listed change. Values near 0.05 are background.
# B1: TEV protease; numbered along this chain (parent)
# chain: MGESLFKGPRDYNPISSSICHLTNESDGHTTSLYGIGFGPFIITNKHLFRRNNGTLVVQSLHGVFKVKDTTTLQQHLVDGRDMIIIRMPKDFPPFPQKLKFREPQREERICLVTTNFQTKSMSSMVSDTSCTFPSGDGIFWKHWIQTKDGQCGSPLVSTRDGFIVGIHSASNFTNTNNYFTSVPKNFMELLTNQEAQQWVSGWRLNADSVLWGGHKVFMVKPEEPFQPVKEATQL
# Variants of: B1
# Test: raw area under fraction-flipped curve 0-4 h after induction (AUC4h, not background-subtracted), DNA-recorder readout of cleavage of the substrate (dimensionless); higher = more cleavage of the substrate by the protease variant
# Settings: temperature: 34 °C; time window: 0-4 h after rhamnose induction
# Procedure: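 In vivo DNA recorder in E. coli TOP10(DE3) ΔrhaA at 34 °C. Each TEVp single-site mutant (parent TEVp 0) is paired with a single-site variant of the 7-mer TEVs (canonical ENLYFQ|S). The substrate sits between flexible linkers in a Bxb1-sfGFP-TEVs-SsrA fusion, so cleavage stabilises Bxb1 and speeds flipping of a recombination array, read by NGS. The value is the raw area under the fraction-flipped curve over 0-4 h after rhamnose induction (AUC4h), with ≥20 reads per time point. It is not background-subtracted; inactive controls average about 0.047.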
# 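Further: Bxb1 expression induced with 0.2% (w/v) L-rhamnose at OD600 near 0.5, cultures sampled hourly, flipped fraction per protease–substrate barcode pair counted by paired-end Illumina sequencing.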
Variant,area with substrate ENAYFQS,area with substrate ENCYFQS,area with substrate ENDYFQS,area with substrate ENEYFQS,area with substrate ENFYFQS,area with substrate ENGYFQS,area with substrate ENHYFQS,area with substrate ENIYFQS,area with substrate ENMYFQS,area with substrate ENNYFQS,area with substrate ENPYFQS,area with substrate ENQYFQS,area with substrate ENRYFQS,area with substrate ENSYFQS,area with substrate ENTYFQS,area with substrate ENVYFQS,area with substrate ENWYFQS,area with substrate ENYYFQS,area with substrate ENKYFQS
L77F,0.0579,0.0567,0.0657,0.0563,0.0619,0.0576,0.0628,0.0606,0.0451,0.0659,0.0688,0.0556,0.0594,0.0579,0.0682,0.0594,0.0703,0.0566,
E108Q,0.0509,0.0468,0.049,,,0.0555,,0.0722,0.0508,,,0.0541,0.0743,0.0488,0.0647,0.0435,0.0393,0.0621,
P104A,0.0505,,0.0631,0.0701,0.0609,0.0584,0.0558,,,0.054,0.02,0.0611,,0.0601,,0.0705,,0.0541,0.0433
P104S,0.0474,0.0524,0.0616,0.0534,,0.0534,0.0576,,0.0499,0.0547,0.0311,0.0378,0.0339,0.0421,0.0506,0.0554,0.0452,,0.0431
P104N,0.0475,,0.0417,0.0441,,0.0391,0.0477,0.0647,0.061,,0.0362,0.0588,,0.0516,,0.0499,,,0.0417
P104V,0.0716,,0.0269,0.0562,,,,0.112,0.0499,0.0435,0.0629,0.0648,,0.0653,0.0539,0.0579,,,0.0694
P104C,0.0518,0.0597,0.0569,0.0627,0.0612,0.0546,0.0611,0.078,0.0559,0.035,0.0516,0.0587,,0.0603,0.0418,0.0663,,,0.0549
I85L,0.0674,0.0687,,0.0719,0.068,,,,0.0857,0.0586,0.0586,0.0536,0.0603,0.0597,0.0471,,,,0.0564
R81H,0.0553,0.0739,,0.066,,0.0657,0.0571,,0.0715,0.0585,0.0663,0.0642,0.0509,0.0683,0.0557,,,,0.0738
R102G,0.0421,0.0511,0.0526,0.0502,,0.0494,0.0531,0.0552,0.0609,0.0445,,0.0498,0.041,0.0505,,0.0627,0.0461,,
T114H,0.0574,0.0717,0.0669,,0.0597,,,,,,,,0.0563,0.0526,,0.0746,0.0009,,
I110E,0.0619,,,,0.0422,0.115,,,,0.048,,,,0.0382,0.0551,0.0526,0.0442,0.053,0.0586
I110V,0.0653,0.0659,0.0713,0.0661,0.0709,0.0586,0.0801,0.0952,0.0904,0.0636,0.0478,0.0623,0.0557,0.0642,0.0576,0.078,0.0497,0.0631,0.0599
F95Y,0.0588,,0.0606,,0.041,0.0585,0.0527,,,0.0585,,0.0503,0.062,,0.0665,,0.0421,,
H76C,0.0579,0.0665,0.0418,0.0529,0.0686,,0.0583,0.13,,0.0659,0.0579,0.0679,0.0644,0.0413,0.059,0.0689,0.047,,0.0675
P96W,0.0497,,0.0511,0.0631,0.0542,,,0.101,,0.0641,,,,0.0045,0.0603,0.0773,,,
P96A,0.0461,0.0948,0.0581,,0.0548,0.0629,0.0546,0.11,,0.0525,,0.0756,0.0442,0.0641,0.0699,,,0.0382,
P96C,0.0575,0.0712,0.0612,0.0582,,0.0604,0.0787,,0.105,0.0279,0.0682,0.058,0.0472,0.0536,0.0952,,0.0698,0.0596,0.0411
P96H,0.0448,0.071,0.0623,0.067,,,0.0532,0.0658,0.0901,,0.0711,0.0577,0.0715,0.0586,0.0649,0.0765,,0.0648,0.062
P96T,0.0714,,0.0637,,,,,0.103,,,0.0514,,,0.0868,,,,,0.0642
P96E,0.065,0.0529,0.0636,0.0596,0.0681,0.0641,0.0802,0.102,,0.0625,0.0472,,0.0572,0.0646,0.0632,0.0681,0.014,,0.0776
L112D,0.0611,0.0504,0.0531,0.0536,0.0815,0.0575,0.0688,,,0.0593,0.0614,0.046,,,,0.051,,0.0618,
L112A,0.0585,,0.0605,0.0562,0.0561,0.0509,0.0592,0.0897,0.065,,,0.0618,0.0331,0.0742,0.0694,0.0627,,,
L112G,0.0492,0.0655,,0.05,0.0536,0.0778,0.04,,0.0614,,,0.0764,0.0614,0.0493,0.0559,0.0413,0.0391,0.0557,0.0611
L112M,0.0693,0.0697,0.0714,,,0.0968,0.0609,,0.0825,0.0574,0.0484,0.0727,,0.0586,,0.0836,,,0.07
L112T,0.0616,0.0609,0.0507,0.0753,0.0585,0.0575,0.071,0.0425,,0.0535,0.0687,0.0497,0.0661,0.0618,0.0636,,0.0591,0.0537,0.0553
